Measured values reported in the supplement of paper PMC4967469.
IC50 is the fitted dose that halves viability relative to control wells, and lower means more sensitive; a fit beyond the top or the lowest dose is shown as a bound at that dose. The AUC spans the tested range (256-fold, ending at the top dose) of the same fit; values near 1 show little effect. For some assays here: Any top dose called inferred was derived from the fitted curves, not read from the paper. For some assays here: Drugs with an entry number were screened twice under separate entries, and the two screens often disagree.

How the values were obtained:
Assay in all cases: Viability of human cancer cell lines after 72 h of drug (GDSC screen)
PI-103 = compound: Oc1cccc(-c2nc(N3CCOCC3)c3oc4ncccc4c3n2)c1 [PI-103]; conditions: top dose 10.24 µM
Protocol: (§1)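 Human cancer cell lines in 384-well plates, medium with 10% serum, drug for 72 h over a 256-fold dose range (nine 2-fold or five 4-fold steps up to the top dose). Adherent lines were fixed and stained with the nucleic acid dye Syto60, suspension lines read with resazurin; signal relative to control wells, capped at 0 and 100%. One two-parameter sigmoid per drug and line, fitted in a mixed model over all curves with the slope shared within a line.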

BX-795 = compound: O=C(NCCCNc1nc(Nc2cccc(NC(=O)N3CCCC3)c2)ncc1I)c1cccs1 [BX-795]; conditions: top dose 5 µM; top dose inferred
Protocol: as §1

GSK690693 = compound: CCn1c(-c2nonc2N)nc2c(C#CC(C)(C)O)ncc(OC[C@H]3CCCNC3)c21 [GSK690693]; conditions: top dose 10.24 µM; top dose inferred
Protocol: as §1

SB-505124 = compound: Cc1cccc(-c2[nH]c(C(C)(C)C)nc2-c2ccc3c(c2)OCO3)n1 [SB-505124]; conditions: top dose 10 µM; top dose inferred
Protocol: as §1

UNC0638 = compound: COc1cc2c(NC3CCN(C(C)C)CC3)nc(C3CCCCC3)nc2cc1OCCCN1CCCC1 [UNC0638]
Protocol: as §1

Tretinoin = compound: CC1=C(/C=C/C(C)=C/C=C/C(C)=C/C(=O)O)C(C)(C)CCC1 [Tretinoin]; conditions: top dose 10 µM; top dose inferred
Protocol: as §1

[1] = top dose 20 µM, screen: GDSC drug entry 1236, top dose inferred
[2] = top dose 40 µM, screen: GDSC drug entry 245

| Cell Line | AUC (PI-103) | IC50 (PI-103) | AUC (BX-795) | IC50 (BX-795) | AUC (GSK690693) | IC50 (GSK690693) | AUC (SB-505124) | IC50 (SB-505124) | AUC (UNC0638; [1]) | IC50 (UNC0638; [1]) | AUC (UNC0638; [2]) | IC50 (UNC0638; [2]) | AUC (Tretinoin) | IC50 (Tretinoin) |
| --- | --- | --- | --- | --- | --- | --- | --- | --- | --- | --- | --- | --- | --- | --- |
| CCK-81 (large intestine, adherent) | 0.813 | 5.11 µM | 0.962 | > 5 µM | 0.982 | > 10.2 µM | 0.989 | > 10 µM | 0.989 | > 20 µM | 0.818 | 20.9 µM | 0.984 | > 10 µM |
| CHL-1 (melanoma, adherent) | 0.248 | 0.127 µM | 0.778 | 1.91 µM | 0.966 | > 10.2 µM | 0.931 | > 10 µM | 0.961 | > 20 µM | 0.911 | > 40 µM | 0.826 | 5.58 µM |
| CHSA0011 (chondrosarcoma, adherent) | 0.781 | 6.14 µM | 0.788 | 3.22 µM | 0.953 | > 10.2 µM | 0.931 | > 10 µM | 0.799 | 14.5 µM | 0.83 | > 40 µM | 0.863 | > 10 µM |
| CHSA0108 (chondrosarcoma, adherent) | 0.885 | > 10.2 µM | 0.805 | 3.01 µM | 0.982 | > 10.2 µM | 0.965 | > 10 µM | 0.651 | 3.52 µM | 0.669 | 8.02 µM | 0.873 | > 10 µM |
| CHSA8926 (chondrosarcoma, adherent) | 0.832 | > 10.2 µM | 0.806 | 3.96 µM | 0.977 | > 10.2 µM | 0.977 | > 10 µM | 0.692 | 5.47 µM | 0.761 | 20.1 µM | 0.98 | > 10 µM |
| COLO-205 (large intestine, suspension) | 0.987 | > 10.2 µM | 0.834 | 3.18 µM | 0.974 | > 10.2 µM | 0.971 | > 10 µM | 0.835 | 12.9 µM | 0.733 | 11.4 µM | 0.985 | > 10 µM |
| COLO-678 (large intestine, semi-adherent) | 0.958 | > 10.2 µM | 0.95 | > 5 µM | 0.981 | > 10.2 µM | 0.982 | > 10 µM | 0.907 | > 20 µM | 0.784 | 22.4 µM | 0.985 | > 10 µM |
| COLO-679 (melanoma, adherent) | 0.67 | 2.03 µM | 0.928 | > 5 µM | 0.983 | > 10.2 µM | 0.942 | > 10 µM | 0.81 | 12.1 µM | 0.88 | > 40 µM | 0.982 | > 10 µM |
| COLO-680N (oesophagus, adherent) | 0.756 | 4.09 µM | 0.953 | > 5 µM | 0.907 | > 10.2 µM | 0.983 | > 10 µM | 0.886 | > 20 µM | 0.986 | > 40 µM | 0.972 | > 10 µM |
| COLO-783 (melanoma, adherent) | 0.929 | > 10.2 µM | 0.982 | > 5 µM | 0.99 | > 10.2 µM | 0.976 | > 10 µM | 0.753 | 6.43 µM | 0.868 | 34.2 µM | 0.991 | > 10 µM |
